The values that follow come from the supplement of paper PMC12340641.

In all, about 1,000 compounds were measured (“relative growth in counter assay (no AraC = 100%, AraC + DMSO = 0%)”: median about -1.1, highest 2% from about 20 on). The list shows a part of the results.

In the test the test system is HEK293FT dCK*-only. Description: relative growth in counter assay (no AraC = 100%, AraC + DMSO = 0%); higher = more growth rescue independent of IKZF1. Particulars: compound concentration: 5 uM; AraC concentration: 0.3 uM; overnight pretreatment + 4 days AraC. The protocol:
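Growth recovery screen of the molecular-glue-like (Specs) library. HEK293FT cells expressing a dCK*-IKZF1 fusion (primary) or dCK* alone (counter) were pretreated overnight with compound at 5 uM, then given 0.3 uM AraC for 4 days. Hoechst nuclei were counted by imaging. Primary: normalised to pomalidomide (100%) and DMSO (0%), mean of 2 replicates. Counter: normalised to no-AraC (100%) and AraC+DMSO (0%), single replicate.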
For `CN(CCN1CCC(C(=O)O)CC1)c1cccc2c1C(=O)N(C1CCC(=O)NC1=O)C2=O` (stereo unspecified), the “relative growth in counter assay” value was determined as 2.03%.
In the case of `COc1ccc(/C=C/C(=O)NC(=S)Nc2ccc(S(=O)(=O)Nc3nccnc3OC)cc2)cc1OC` it was -22.9%; in that of `COc1ccc(OCCCC(=O)Nc2ccc(S(=O)(=O)Nc3cc(C)nc(C)n3)cc2)cc1`, -0.26%.
In the case of `Cc1csc(Nc2cccc(C3CCN(CC(=O)N4CCC(C(N)=O)CC4)CC3)n2)n1`, the “relative growth in counter assay” value is -0.8%.
Turning to `CCC(C(=O)Nc1ccc(S(=O)(=O)Nc2ncccn2)cc1)c1ccccc1` (stereo unspecified), the “relative growth in counter assay” value stood at 8.03%.
`CCCC(=O)Nc1ccc(S(=O)(=O)Nc2cc(C)nc(C)n2)cc1`: the “relative growth in counter assay” value was -0.75%.
Next, `O=C(CN1CCC(c2cccc(Nc3nccs3)n2)CC1)N1CCCc2ccccc21`: -6.67%; `O=[N+]([O-])c1ccc(S(=O)(=O)Nc2ncccn2)cc1`: -0.85%.
`CC(=O)N1CCCC1CCc1ccc(Nc2ncc(-c3ccc(F)cc3)s2)nc1` (stereo unspecified): the “relative growth in counter assay” value is -14%.
`Cc1cnc(Nc2cccc(C3CN(C(=O)CN(C(=O)CC(C)C)c4ccccc4)CCO3)n2)s1` (stereo unspecified): the “relative growth in counter assay” value was 9.59%.
As to `Cc1cnc(Nc2cccc(C3CCN(C(=O)C45CC6CC(CC(O)(C6)C4)C5)CC3)n2)s1`, the “relative growth in counter assay” value is -23.4%.
Consider `Cn1nccc1/C=C/C(=O)N1CCCC1c1csc(Nc2ccccn2)n1` (stereo unspecified), for which the “relative growth in counter assay” value is -0.93%.
As for `Cc1cnc(Nc2cccc(C3CCCN3C(=O)CCOc3ccccc3C)n2)s1` (stereo unspecified), the “relative growth in counter assay” value was -3.51%.
Take `Cc1cc(C)c2[nH]c3nc(SCC(=O)Nc4ccc(F)cc4)nnc3c2c1`: the “relative growth in counter assay” value was -10.1%.
Next, `CC(=O)Nc1ccc(-c2csc(Nc3ccccn3)n2)cc1`: 15.7%; `Cc1cc(C)c2[nH]c3nc(SCC(=O)Nc4cccc(Cl)c4)nnc3c2c1`: -16.7%; `COCC(=O)N1CCCC1c1cccc(Nc2nccs2)n1` (stereo unspecified): -3.54%.
For `Cc1cnc(Nc2cccc(C3CCN(C(=O)CCn4ncc5ccccc54)CC3)n2)s1`, the “relative growth in counter assay” value turned out to be 3.03%.
On to `O=C(CCc1ccccc1)Nc1ccc(S(=O)(=O)Nc2ccccn2)cc1`, for which the “relative growth in counter assay” value stood at 1.91%.
In the case of `COc1cc(NS(=O)(=O)c2ccc(NC(=S)NC(=O)/C=C/c3ccco3)cc2)nc(OC)n1` it was -4.41%; in that of `O=C(/C=C/c1ccc(Cl)cc1)Nc1ccc(S(=O)(=O)Nc2ncccn2)cc1`, -21.9%; in that of `Cc1cnc(Nc2cccc(C3CCN(C(=O)[C@H]4CCCC[C@H]4NC(=O)OC(C)(C)C)CC3)n2)s1`, -9.49%.
Regarding `CC(C)(C)CC(=O)Nc1ccc(S(=O)(=O)Nc2ncccn2)cc1`, the “relative growth in counter assay” value is -0.2%.
Next, `CC(C)c1cccc(OCC(=O)Nc2ccc(S(=O)(=O)Nc3ccccn3)cc2)c1`: 1.61%; `O=[N+]([O-])c1ccc(S(=O)(=O)Nc2ccc(S(=O)(=O)Nc3ncccn3)cc2)cc1`: 0.33%; `O=C(CN1CCC(c2cccc(Nc3nccs3)n2)CC1)Nc1ccc(F)cc1`: 7.72%.
For `Cc1nc(Nc2cccc(C3CCCN3C(=O)CN3CCc4ccccc4C3)n2)sc1C` (stereo unspecified), the “relative growth in counter assay” value was 0.56%.
In the case of `COc1cc(NS(=O)(=O)c2ccc(Nc3nc(-c4ccccc4)cs3)cc2)nc(OC)n1`, the “relative growth in counter assay” value was -18.6%.
Next, `O=C(CS(=O)(=O)c1ccccc1)Nc1ccc(S(=O)(=O)Nc2ncccn2)cc1`: 8.67%; `O=C(Nc1ccc(S(=O)(=O)Nc2ncccn2)cc1)Oc1ccccc1`: -1.98%; `Cc1cnc(Nc2cccc(C3CCN(C(=O)CC4CCCCC4)CC3)n2)s1`: -21.1%.
Next, `Cc1nc(Nc2cccc(C3CCCN3C(=O)CCCN3C(=O)CNC3=O)n2)sc1C` (stereo unspecified): 6.76%.
On to `COc1ccc(/C=C/C(=O)Nc2ccc(S(=O)(=O)Nc3cc(C)nc(C)n3)cc2)cc1`, for which the “relative growth in counter assay” value amounted to 0.21%.
`O=C(O)CCOCCNc1cccc2c1C(=O)N(C1CCC(=O)NC1=O)C2=O` (stereo unspecified): the “relative growth in counter assay” value is -0.81%.
For `COc1cccc(C(=O)N2CCOC(c3cccc(Nc4nc(C)c(C)s4)n3)C2)c1` (stereo unspecified), the “relative growth in counter assay” value was found to be 0.39%.
For `Cc1cc(C)nc(NS(=O)(=O)c2ccc(NC(=O)c3oc4ccccc4c3C)cc2)n1`, the “relative growth in counter assay” value was -5.96%.
With `Cc1cnc(Nc2cccc(CC3CCN(C(=O)C4CCCCC4)CC3)n2)s1`, the “relative growth in counter assay” value was -6.51%.
Next, `Cc1cnc(Nc2cccc(C3CN(C(=O)CCc4ccccc4)CCO3)n2)s1` (stereo unspecified): 7.87%; `Cc1cnc(Nc2cccc(C3CN(C(=O)COc4ccccc4)CCO3)n2)s1` (stereo unspecified): -9.61%; `CCCCc1cnc(Nc2cccc(C3CCN(C(=O)[C@@H]4CCCCN4CCO)CC3)n2)s1`: -19.1%.
Take `COc1cccc(OC)c1C(=O)Nc1ccc(S(=O)(=O)Nc2cc(C)nc(C)n2)cc1`: the “relative growth in counter assay” value was 6.06%.
As for `COc1cc(NS(=O)(=O)c2ccc(Nc3nc(-c4sc(N)nc4C)cs3)cc2)nc(OC)n1`, the “relative growth in counter assay” value amounted to 4.3%.
Next, `Cc1ccc(OCCCC(=O)Nc2ccc(S(=O)(=O)Nc3nc(C)cc(C)n3)cc2)cc1`: -5.16%.
In the case of `CN(CCC(=O)N1CCOC(c2cccc(Nc3nccs3)n2)C1)c1cccc(F)c1` (stereo unspecified) it was 2.6%; in that of `Nc1ccc(S(=O)(=O)Nc2nccc(/C=C/c3ccccc3F)n2)cc1`, -1.02%; in that of `O=C(/C=C/c1ccccc1)N1CCC(c2csc(Nc3ccc(F)cn3)n2)CC1`, -6.37%.
In the case of `CC(C)(C)C(=O)N1CCOC(c2cccc(Nc3ncc(Cc4ccccc4Cl)s3)n2)C1` (stereo unspecified) it was 3.6%; in that of `CCCC(=O)Nc1ccc(S(=O)(=O)Nc2ncccn2)cc1`, -4.52%; in that of `COc1ccc(C(=O)Nc2ccc(S(=O)(=O)Nc3nccc(C)n3)cc2)cc1[N+](=O)[O-]`, -4.03%.
Consider `Cc1cnc(Nc2cccc(C3CCN(C(=O)C4CC(=O)OC45CCCCC5)CC3)n2)s1` (stereo unspecified), for which the “relative growth in counter assay” value was -24.3%.
In the case of `CCOCc1ccc(C(=O)N2CCC(c3cccc(Nc4ncc(C)s4)n3)CC2)cc1` it was 12.5%.
In the case of `Cc1cc(NS(=O)(=O)c2ccc(NC(=O)C(C)C)cc2)nc(C)n1`, the “relative growth in counter assay” value was -9.51%.
In the case of `CCCOc1ccccc1C(=O)Nc1ccc(S(=O)(=O)Nc2nc(C)cc(C)n2)cc1` it was 2.83%; in that of `Cc1cc(C)nc(NS(=O)(=O)c2ccc(NC(=O)Cn3cnc4ccccc4c3=O)cc2)n1`, -5.6%; in that of `Cc1cnc(Nc2cccc(C3CCN(CC(=O)NCc4ccccn4)CC3)n2)s1`, 0.12%.
In the case of `CCCc1cnc(Nc2cccc(C3(C(N)=O)CCN(C(=O)C4CCCCC4)CC3)n2)s1` it was -17.3%.
In the case of `CCS(=O)(=O)Nc1ccc(S(=O)(=O)Nc2nc(C)cc(C)n2)cc1` it was 4.93%; in that of `CC(C)(C)C(=O)N1CCOC(c2cccc(Nc3ncc(-c4cccnc4)s3)n2)C1` (stereo unspecified), 4.19%; in that of `NC1(C(=O)N2CCC(c3cccc(Nc4ncc(Cl)s4)n3)CC2)CC1`, -24.3%.
Take `CNC(=O)C(c1cccc(Nc2ncc(C)s2)n1)C1CCN(C(=O)[C@H](CC(C)C)NC(=O)OC(C)(C)C)CC1` (stereo partly specified): the “relative growth in counter assay” value stood at 8.97%.
With `CC(C)N(C(=O)CN1CCOC(c2cccc(Nc3nccs3)n2)C1)C1CCCCC1` (stereo unspecified), the “relative growth in counter assay” value worked out at 2.51%.
Next, `Cc1ccnc(NS(=O)(=O)c2ccc(NC(=O)CCCOc3ccccc3)cc2)n1`: 3.33%; `Cc1cnc(Nc2cccc(C3CN(C(=O)C4CC=CCC4)CCO3)n2)s1` (stereo unspecified): -15.7%.
As for `COC(=O)C(c1cccc(Nc2ncc(C)s2)n1)C1CCN(C(=O)C2CCCCC2)CC1` (stereo unspecified), the “relative growth in counter assay” value was 4.86%.
`Cc1cc(NS(=O)(=O)c2ccc(NC(=O)c3ccccc3Cl)cc2)nc(C)n1`: the “relative growth in counter assay” value worked out at 5.37%.
Next, `O=[N+]([O-])c1ccc(S(=O)(=O)Nc2ccccn2)cc1`: -0.83%; `CC(=O)N1CCC(c2csc(Nc3ncccc3C)n2)CC1`: -0.11%; `CC(C)C(=O)N1CCCC1c1csc(Nc2ccccn2)n1` (stereo unspecified): 6.43%.
In the case of `COCC(=O)N1CCOC(c2cccc(Nc3nc(C)cs3)n2)C1` (stereo unspecified) it was 2.47%.
In the case of `Cc1nc(Nc2cccc(C3CCCN3C(=O)COc3ccc(F)cc3F)n2)sc1C` (stereo unspecified) it was -2.81%; in that of `CC(C)c1ccc(OCC(=O)Nc2ccc(S(=O)(=O)Nc3ccccn3)cc2)cc1`, 4.55%.
As for `Cc1ccc(OCC(=O)Nc2ccc(S(=O)(=O)Nc3ccccn3)cc2)cc1`, the “relative growth in counter assay” value turned out to be 7.96%.
In the case of `O=C(CSc1nnc2c(n1)[nH]c1ccc(F)cc12)Nc1ccc(F)cc1` it was 10.9%.
As for `Cc1ccnc(NS(=O)(=O)c2ccc(NC(=O)c3ccccc3C)cc2)n1`, the “relative growth in counter assay” value was -1.56%.
Next, `CN(C)CC1(c2cccc(Nc3ncc(-c4ccccc4)s3)n2)CCN(C(=O)C(C)(C)N)CC1`: -24.6%; `COc1ccc(N2CC(C(=O)Nc3ccc(S(=O)(=O)Nc4nc(C)cc(C)n4)cc3)CC2=O)cc1` (stereo unspecified): 7.32%; `Cc1cnc(Nc2cccc(C3CCN(CC(=O)Nc4ccccc4F)CC3)n2)s1`: -9.54%.
Next, `Cc1cc(C)nc(NS(=O)(=O)c2ccc(Nc3nc(-c4ccc(Cl)cc4)cs3)cc2)n1`: -7.62%.
For `O=C(C1CCCCC1)N1CCC(Cc2cccc(Nc3nccs3)n2)CC1`, the “relative growth in counter assay” value was determined as 18%.
Next, `Cn1nccc1/C=C/C(=O)N1CCC(c2cc3ccccc3c(Nc3nccs3)n2)CC1`: -21.2%; `Cc1cc(C)nc(NS(=O)(=O)c2ccc(NC(=O)CSc3nc4c(cc3C#N)CCCCC4)cc2)n1`: 5.78%; `CN(CCC(=O)N1CCCC1c1cccc(Nc2nccs2)n1)c1ccccc1F` (stereo unspecified): 2.31%.
For the compound `Cc1cc(C)nc(NS(=O)(=O)c2ccc(NC(=O)C(C)C)cc2)n1`, the “relative growth in counter assay” value was found to be 2.66%.
In the case of `Cc1cc(C)nc(NS(=O)(=O)c2ccc(NC(=S)NC(=O)c3cccnc3)cc2)n1` it was 1.06%; in that of `CCCC(C)C(=O)Nc1ccc(S(=O)(=O)Nc2nccc(C)n2)cc1` (stereo unspecified), -3.64%; in that of `COc1ccc(S(=O)(=O)Nc2cccc3cn[nH]c23)c(C)c1C`, -0.77%.
`Cc1cc(C)nc(NS(=O)(=O)c2ccc(NC(=O)c3cccs3)cc2)n1`: the “relative growth in counter assay” value is -2.72%.
Regarding `CCOC(=O)C(=O)Nc1ccc(S(=O)(=O)Nc2ncccn2)cc1`, the “relative growth in counter assay” value was 1.3%.
Next, `Cc1nc(/C=C/C(=O)N2CCC(c3cc4ccccc4c(Nc4nccs4)n3)CC2)cs1`: -21.8%; `COc1ccc(C(=O)Nc2ccc(S(=O)(=O)Nc3nccc(C)n3)cc2)cc1`: -6.7%.
Next, `Cc1cc(C)c(C(=O)Nc2ccc(S(=O)(=O)Nc3cc(C)nc(C)n3)cc2)c(C)c1`: 4.33%; `Cc1cc(C)nc(NS(=O)(=O)c2ccc(NC(=O)c3ccccc3C)cc2)n1`: 11.1%; `Cc1cc(NS(=O)(=O)c2ccc(NC(=O)CCCOc3ccc(Cl)cc3)cc2)nc(C)n1`: -1.83%.
Turning to `Cc1nc(Nc2cccc(C3CCN(C(=O)C4CC=CCC4)CC3)n2)sc1C` (stereo unspecified), the “relative growth in counter assay” value turned out to be 7.52%.
Next, `Cc1cnc(Nc2cccc(C3CCCN3C(=O)c3nccc4ccccc34)n2)s1` (stereo unspecified): -8.57%; `COc1ccc(OCC(=O)Nc2ccc(S(=O)(=O)Nc3nc(C)cc(C)n3)cc2)cc1`: 1.1%.
